Measured values as given in the supplement of paper PMC6206098.
± gives the uncertainty stated by the source. The sequences are guide strands of siRNAs; only the seed at positions 2 to 7 varies.

Experiments:
3LL = test: cell viability relative to siNT1 control; higher = less toxic; settings: concentration: 10 nM; 96 h; Mus musculus;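 further: Luminescence-based viability of cells reverse transfected in 384-well plates with lipid-complexed siRNAs built on a non-toxic 19mer backbone whose passenger strand carries 2′-O-methyl groups at positions 1 and 2, triplicates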
Protocol: (§1)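 Arrayed screen of 4096 siRNA duplexes, each carrying one of all possible 6mer seeds at guide-strand positions 2-7 in a fixed neutral 19mer scaffold (constant flanks: U at position 1, then ACAUGUAAACCA, plus a 3' AA overhang). The passenger strand is 2'-O-methylated at positions 1-2 so only the guide strand loads into RISC. Duplexes were reverse-transfected at 10 nM with RNAiMAX in triplicate in 384-well plates; viability was read by CellTiter-Glo ATP content 96 h after transfection. Values are % viability normalised to lipid-only wells (HeyA8, H460, M565) or to siNT1 (3LL).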

H460 = test: cell viability relative to lipid-only control; HeyA8 human ovarian and H460 human lung cancer; M565 mouse liver and 3LL mouse lung cancer; siNT1 is a non-toxic control siRNA; higher = less toxic; settings: concentration: 10 nM; 96 h; Homo sapiens
Protocol: as §1

HeyA8 = test: as above; settings: concentration: 10 nM; 96 h; Homo sapiens
Protocol: as §1

M565 = test: as above; settings: concentration: 10 nM; 96 h; Mus musculus
Protocol: as §1
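Wherever cell viability relative to lipid-only control is given: reverse lipid transfection in 384-well plates, in triplicate, of duplexes on a non-toxic 19mer backbone with passenger strand 2′-O-methylated at positions 1 and 2, luminescence viability read-out.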

Sequence | cell viability (3LL) [%] | cell viability (H460) [%] | cell viability (HeyA8) [%] | cell viability (M565) [%]
UACCUAGACAUGUAAACCAAA | 76.9 ± 4.8 | 43.5 ± 4.2 | 25.6 ± 4 | 68.2 ± 17
UACCUAUACAUGUAAACCAAA | 77.4 ± 9.2 | 68.9 ± 9.7 | 58.8 ± 2.2 | 84.8 ± 17
UACCUCAACAUGUAAACCAAA | 68.8 ± 5.9 | 46.6 ± 5.3 | 82.6 ± 8.3 | 39.3 ± 3.8
UACCUCCACAUGUAAACCAAA | 11.2 ± 5.8 | 35.1 ± 3.7 | 51.9 ± 6.5 | 8.85 ± 2.4
UACCUCGACAUGUAAACCAAA | 83.4 ± 12 | 43.7 ± 5.1 | 90.1 ± 4.7 | 59 ± 7.2
UACCUCUACAUGUAAACCAAA | 27.2 ± 9.2 | 41.3 ± 7.3 | 49.7 ± 5.6 | 32.9 ± 9.7
UACCUGAACAUGUAAACCAAA | 84.4 ± 2.9 | 63.9 ± 1.9 | 66.1 ± 4.6 | 83.4 ± 14
UACCUGCACAUGUAAACCAAA | 12.9 ± 6.7 | 25.2 ± 6.3 | 18 ± 2.1 | 14.9 ± 7.6
UACCUGGACAUGUAAACCAAA | 59 ± 15 | 65.6 ± 11 | 51.7 ± 5 | 56.9 ± 9
UACCUGUACAUGUAAACCAAA | 38.7 ± 11 | 49.6 ± 2.4 | 38.9 ± 2.3 | 24.1 ± 6.2
UACCUUAACAUGUAAACCAAA | 92.5 ± 4.5 | 60.8 ± 8.7 | 86.4 ± 3.6 | 77.9 ± 9.8
UACCUUCACAUGUAAACCAAA | 48.8 ± 9.4 | 55.1 ± 8.5 | 38.1 ± 1.6 | 40.7 ± 1.5
UACCUUGACAUGUAAACCAAA | 87.8 ± 3.1 | 69.8 ± 12 | 90.5 ± 6.4 | 64.4 ± 17
UACCUUUACAUGUAAACCAAA | 45.5 ± 12 | 50.2 ± 9.1 | 24.6 ± 3.2 | 53.3 ± 12
UACGAAAACAUGUAAACCAAA | 85.2 ± 8.8 | 101 ± 6.3 | 94.6 ± 10 | 84.5 ± 7.6
UACGAACACAUGUAAACCAAA | 90.1 ± 11 | 76.2 ± 4.5 | 70.1 ± 4.2 | 62.2 ± 4.1
UACGAAGACAUGUAAACCAAA | 83.1 ± 8.6 | 80.5 ± 12 | 89.4 ± 9 | 67.3 ± 7.1
UACGAAUACAUGUAAACCAAA | 90.3 ± 12 | 94.6 ± 26 | 87.5 ± 15 | 76.4 ± 10
UACGACAACAUGUAAACCAAA | 88.8 ± 5.8 | 75 ± 14 | 89.1 ± 12 | 77 ± 8

Sequence | cell viability (3LL) [%] | cell viability (H460) [%] | cell viability (HeyA8) [%] | cell viability (M565) [%]
UACGACCACAUGUAAACCAAA | 65 ± 13 | 47.6 ± 5.3 | 8.64 ± 0.94 | 31.7 ± 3.4
UACGACGACAUGUAAACCAAA | 89.8 ± 12 | 72.5 ± 4.1 | 86.4 ± 7.4 | 82.2 ± 9.9
UACGACUACAUGUAAACCAAA | 88.2 ± 11 | 73.8 ± 14 | 60.5 ± 5.8 | 52.9 ± 5.1
UACGAGAACAUGUAAACCAAA | 84.9 ± 12 | 70.3 ± 13 | 86.7 ± 8.4 | 78.2 ± 14
UACGAGCACAUGUAAACCAAA | 74.4 ± 8.6 | 97.094 ± 0.073 | 72.5 ± 8.4 | 17.9 ± 1.6
UACGAGGACAUGUAAACCAAA | 94.1 ± 14 | 69.2 ± 12 | 68.7 ± 3.3 | 84.4 ± 11
UACGAGUACAUGUAAACCAAA | 74.4 ± 6.6 | 71.9 ± 12 | 71.4 ± 2.2 | 76.2 ± 12
UACGAUAACAUGUAAACCAAA | 95.8 ± 19 | 83.7 ± 13 | 91.7 ± 8.5 | 67.5 ± 5.3
UACGAUCACAUGUAAACCAAA | 86.1 ± 14 | 51.5 ± 3.4 | 66 ± 4.9 | 72.1 ± 4.7
UACGAUGACAUGUAAACCAAA | 90 ± 16 | 71 ± 14 | 75.7 ± 6.8 | 70.3 ± 11
UACGAUUACAUGUAAACCAAA | 93.5 ± 14 | 73.6 ± 8.2 | 84.8 ± 8.4 | 72.4 ± 8.5
UACGCAAACAUGUAAACCAAA | 89.7 ± 6.2 | 67.2 ± 9.1 | 90.9 ± 10 | 83.9 ± 17
UACGCACACAUGUAAACCAAA | 62.9 ± 5.1 | 84.9 ± 18 | 68.9 ± 8.5 | 47.8 ± 7.9
UACGCAGACAUGUAAACCAAA | 74.8 ± 4.7 | 107 ± 4.7 | 92.5 ± 11 | 79.1 ± 11
UACGCAUACAUGUAAACCAAA | 79.1 ± 5.5 | 66.6 ± 11 | 27.4 ± 3.2 | 82.8 ± 32
UACGCCAACAUGUAAACCAAA | 76 ± 2.4 | 86.9 ± 10 | 95.8 ± 14 | 71.5 ± 8.5
UACGCCCACAUGUAAACCAAA | 57.8 ± 7 | 66 ± 11 | 48.2 ± 1.3 | 31.4 ± 6.6
UACGCCGACAUGUAAACCAAA | 79.3 ± 4.7 | 107 ± 8.8 | 86.7 ± 9.5 | 71.5 ± 9.6
UACGCCUACAUGUAAACCAAA | 62.4 ± 2.5 | 71.6 ± 19 | 79.5 ± 14 | 60.2 ± 12

Sequence | cell viability (3LL) [%] | cell viability (H460) [%] | cell viability (HeyA8) [%] | cell viability (M565) [%]
UACGCGAACAUGUAAACCAAA | 91.5 ± 7.2 | 69.1 ± 18 | 85.2 ± 10 | 74.4 ± 5.3
UACGCGCACAUGUAAACCAAA | 58.2 ± 9.7 | 69.5 ± 8.6 | 95.8 ± 2.9 | 35.3 ± 9.8
UACGCGGACAUGUAAACCAAA | 82.4 ± 4.6 | 66.7 ± 9.4 | 84.8 ± 5.6 | 73.1 ± 8.6
UACGCGUACAUGUAAACCAAA | 84.6 ± 3.8 | 65.5 ± 3.3 | 92.4 ± 10 | 63.5 ± 3.6
UACGCUAACAUGUAAACCAAA | 91.3 ± 4.2 | 66.4 ± 1.8 | 90.7 ± 3.5 | 90.8 ± 12
UACGCUCACAUGUAAACCAAA | 17.1 ± 7.9 | 64.6 ± 8.7 | 74.9 ± 5.8 | 68.8 ± 20
UACGCUGACAUGUAAACCAAA | 91.7 ± 3.3 | 69.8 ± 1.9 | 89.5 ± 9.6 | 74.9 ± 3.7
UACGCUUACAUGUAAACCAAA | 61.9 ± 11 | 107 ± 2.3 | 73.3 ± 7.8 | 54.8 ± 6.7
UACGGAAACAUGUAAACCAAA | 91.2 ± 12 | 96.2 ± 29 | 92 ± 5.2 | 84.9 ± 14
UACGGACACAUGUAAACCAAA | 70.5 ± 14 | 49.9 ± 4.6 | 19.7 ± 1.1 | 46.5 ± 3.9
UACGGAGACAUGUAAACCAAA | 86.9 ± 16 | 88.1 ± 19 | 83.7 ± 7.2 | 80.4 ± 4
UACGGAUACAUGUAAACCAAA | 84.7 ± 6.5 | 65.9 ± 7.8 | 65 ± 6.6 | 89.2 ± 7
UACGGCAACAUGUAAACCAAA | 74 ± 12 | 77 ± 16 | 69.6 ± 7.5 | 68.7 ± 5.2
UACGGCCACAUGUAAACCAAA | 8.04 ± 3.7 | 46.1 ± 2.2 | 52.7 ± 5.5 | 21 ± 5.1
UACGGCGACAUGUAAACCAAA | 82.2 ± 1.9 | 55.6 ± 5 | 70.9 ± 10 | 64.3 ± 9.6
UACGGCUACAUGUAAACCAAA | 30.6 ± 9.4 | 52.6 ± 5.8 | 38.7 ± 3 | 42.9 ± 12
UACGGGAACAUGUAAACCAAA | 74.3 ± 4.4 | 80.6 ± 25 | 78 ± 9.6 | 59.8 ± 24
UACGGGCACAUGUAAACCAAA | 7.83 ± 0.97 | 35.4 ± 4.3 | 8.06 ± 1.9 | 4.37 ± 0.43
UACGGGGACAUGUAAACCAAA | 59.2 ± 2.1 | 53.7 ± 3.6 | 49.3 ± 13 | 76.9 ± 14
